In all, about 360,000 compounds went through this assay and about 2,600 (0.72%) were called active. Inconclusive means that the source gave no clear call. Such entries were picked first, then a sample of the others. Calls follow the shape of the dose curve; as a rule, active = well fitted inhibition curve with a large enough effect; inconclusive = small, poorly fitted or top-dose-only effect; inactive = no such curve, though single readings can be large or run the other way. Potencies beside an inconclusive call are fits to weak or partial responses and may not hold up.
Experiment: Primary qHTS for Inhibitors of ATXN expression; also: nearly all actives have a fitted effect of over 55% in size
Conditions: HEK-293 ATXN2-luciferase reporter, luminescence, 24 h; activity change, negative = inhibition: at 57 µM (top of the series)
Method in brief: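 ATXN2-luciferase reporter cells (luciferase flanked by upstream and downstream ATXN2 gene portions) were treated 24 h at 37 °C with compounds at up to 57 uM. SteadyGlo luminescence gave expression; GF-AFC fluorescence gave viability.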
In the case of `COc1ccc(NC(=O)CN(C)C(=O)CCc2nc3cc(S(=O)(=O)N4CCOCC4)ccc3n2C)cc1`, the “activity change, negative = inhibition” value is reported as inactive: -0.0591%.
For `O=C(Cn1cc2c(n1)CCCC2)NCCCN1CCN(c2ccccc2F)CC1`, the “activity change, negative = inhibition” value was inactive: 2.27%.
With `COc1ccc(CNc2ncnc3c2[nH]c2cc(OC)c(OC)cc23)cc1` the Potency was inconclusive: 39.8 µM [inhibitor, single point].
In the case of `COCC(=O)N1CCC(Oc2ccc(C(=O)N3CCCCCCC3)cc2)CC1`, the “activity change, negative = inhibition” value is reported as inactive: 7.49%.
With `COc1ccc(S(=O)(=O)Nc2ccc3ccccc3c2)cc1C` the “activity change, negative = inhibition” value was inactive: -8.09%.
With `CCO[C@@H]1OC(C(=O)Nc2ccccc2)=C[C@H](c2ccc(C(F)(F)F)cc2)[C@H]1CCCO` the Potency was inconclusive: 39.8 µM [inhibitor, single point].
With `O=C1OC[C@H]2CCCN2C(=O)[C@@H](CC(=O)N(CCO)Cc2ccccc2)C/C=C\C[C@@H]1Cc1ccc(F)cc1` the Potency was inconclusive: 28.2 µM [inhibitor, partial curve, poor fit].
For `CN(O)C(=S)c1ccccc1`, the Potency was active: 3.98 µM.
For `COc1cc(NC(=O)CN2C(=O)C(c3ccccc3)=NC2(C)C)cc(OC)c1`, the “activity change, negative = inhibition” value was inactive: 11.2%.
With `Cc1cc(C)nc(Nc2nc(C(N)CCc3ccccc3)cs2)n1` (configuration not stated) the Potency was inconclusive: 17.8 µM [inhibitor, partial curve, poor fit].
With `COc1cc(Cn2c(-c3nonc3N)nc3ccccc32)ccc1C` the Potency was inconclusive: 7.08 µM [inhibitor, partial curve].
With `O=C(/C=C/c1ccccc1)N(Cc1cccc(Cl)c1)C1CCS(=O)(=O)C1` (configuration not stated) the “activity change, negative = inhibition” value was inactive: -2.43%.
With `Cc1nc(NC(C)c2ccccc2)c2oc3ccccc3c2n1` (configuration not stated) the Potency was inconclusive: 10 µM [inhibitor, partial curve, poor fit].
In the case of `O=C(CCl)N1CCN(S(=O)(=O)c2ccc3c(c2)CCC3)CC1`, the Potency is reported as inconclusive: 7.52 µM [inhibitor, single point].
In the case of `Cn1c(=O)c([N+](=O)[O-])c(NCCCn2ccnc2)c2ccccc21`, the “activity change, negative = inhibition” value is reported as inactive: 2.33%.
For `CC1CCCCN1S(=O)(=O)c1ccc(C(=O)Nc2nnc(-c3ccccc3Cl)o2)cc1` (configuration not stated), the Potency was inconclusive: 22.4 µM [inhibitor, single point].
In the case of `COc1ccc(-c2c(-c3ccc(OCC(=O)NN)cc3O)n[nH]c2C(F)(F)F)cc1`, the “activity change, negative = inhibition” value is reported as inactive: -8.17%.
With `O=C(c1ccc2c(c1)N(Cc1ccc(Cl)cc1)C(=O)c1ccccc1S2=O)N1CCC(Cc2ccccc2)CC1` (configuration not stated) the Potency was inconclusive: 7.08 µM [inhibitor, full curve].
For `COc1cccc(/C=N/NC(=O)c2ccc(-c3ccccc3)cc2)c1O`, the Potency was active: 3.16 µM.
For `C/C(=C\C=C\c1ccccc1)C(=O)c1c(C)cc(C)[nH]c1=O`, the “activity change, negative = inhibition” value was inactive: 6.69%.
With `CN(Cc1ccccc1)C(=O)c1cccc(NC(=O)Cc2cccc([N+](=O)[O-])c2)c1` the Potency was inconclusive: 25.1 µM [inhibitor, single point].
In the case of `O=C(C[n+]1ccccc1)c1ccc(-c2ccccc2)cc1`, the Potency is reported as inconclusive: 11.9 µM [inhibitor, partial curve, poor fit].
For `COc1cccc(N2CCN(C(=O)c3cc(-c4ccc(F)cc4)[nH]c3C)CC2)c1`, the “activity change, negative = inhibition” value was inactive: -17.4%.
In the case of `COc1ccc(/C=C/C(=O)c2ccc3c4c(cccc24)CC3)cc1OC`, the Potency is reported as active: 15.8 µM.
With `N=c1c2c(-c3ccccc3)c(-c3ccccc3)n(Cc3ccccc3)c2ncn1CCCn1ccnc1` the Potency was inconclusive: 35.5 µM [inhibitor, single point].
In the case of `COCCNc1nc(NCc2cccc(OC)c2OC)c2sccc2n1`, the Potency is reported as inconclusive: 8.91 µM [inhibitor, partial curve, poor fit].
With `Cc1ccccc1OCCCCn1c(CCNC(=O)C(C)(C)C)nc2ccccc21` the Potency was inconclusive: 31.6 µM [inhibitor, single point].
In the case of `Cc1cccc(Cn2c(SCc3ccc(C(=O)NC4CCCC4)cc3)nc3cccnc32)c1`, the Potency is reported as inconclusive: 39.8 µM [inhibitor, single point].
In the case of `Cc1ccc(NS(=O)(=O)c2ccc(Cl)c(NC(=S)NC(=O)C3CCCCC3)c2)cc1Cl`, the Potency is reported as inconclusive: 28.2 µM [inhibitor, single point].
In the case of `O=C(CCCN1C(=O)/C(=C/c2ccccc2OC(F)F)SC1=S)Nc1cccnc1`, the Potency is reported as inconclusive: 39.8 µM [inhibitor, single point].
In the case of `COc1cc(Cl)c(C)cc1NC(=O)CCc1nc2cccnc2n1Cc1cccs1`, the Potency is reported as inconclusive: 28.2 µM [inhibitor, partial curve, poor fit].
For `COc1ccc(CN2C[C@H](Cc3ccccc3)[C@@H](CC(=O)Nc3ccccc3)C2=O)cc1`, the Potency was inconclusive: 31.6 µM [inhibitor, partial curve, poor fit].
For `O=C(CCCOc1ccccc1)Nc1cc(S(=O)(=O)N2CCOCC2)ccc1N1CCOCC1`, the Potency was inconclusive: 1.89 µM [inhibitor, partial curve, poor fit].
For `COc1ccc(F)cc1-c1cc(NC(C)=O)c2ncc(-c3cccc(C(F)(F)F)c3)n2c1`, the Potency was inconclusive: 28.2 µM [inhibitor, single point].
For `O=S(=O)(c1ccc(OCC(O)CNC23CC4CC(CC(C4)C2)C3)c(Cl)c1)N1CCOCC1` (configuration not stated), the Potency was inconclusive: 14.1 µM [inhibitor, single point].
With `O=C(NCc1ccc(F)cc1)N1CCc2ccccc2C1` the “activity change, negative = inhibition” value was inactive: -2.36%.
In the case of `CS(=O)(=O)Nc1ccc([N+](=O)[O-])cc1Oc1ccccc1`, the Potency is reported as inconclusive: 5.44 µM [inhibitor, partial curve].
For `CCCCCCn1c(=O)n2n(c1=O)C[C@]1(OC(=O)NCc3ccc(OC)c(OC)c3)CN(S(=O)(=O)c3ccc(C)cc3)C[C@]1(O)C2`, the Potency was inconclusive: 35.5 µM [inhibitor, partial curve, poor fit].
With `Cc1cc(C(=O)N2CCN(c3ncccn3)CC2)sc1-c1ccccc1` the Potency was inconclusive: 17.8 µM [inhibitor, partial curve, poor fit].
For `CC(C)(C)NCC(=Cc1ccccc1)C(=O)c1ccccc1`, the Potency was active: 8.44 µM.
In the case of `CN(CC(=O)NCc1ccc(F)cc1)S(=O)(=O)c1ccc2[nH]c3c(c2c1)CCCC3`, the Potency is reported as inconclusive: 35.5 µM [inhibitor, single point].
With `Cc1ccc(NS(=O)(=O)c2ccc(C(=O)NNC(=O)c3ccccc3O)cc2)cc1` the Potency was inconclusive: 35.5 µM [inhibitor, single point].
With `COc1ccc(N(C)C(=O)c2cc3c(s2)-c2c(C)cccc2OC3)c(OC)c1` the Potency was inconclusive: 20 µM [inhibitor, single point].
With `CCc1nc(SCC(=O)N2CCN(C(=O)c3ccco3)CC2)c2c3c(sc2n1)CCCC3` the Potency was inconclusive: 22.4 µM [inhibitor, partial curve, poor fit].
For `O=C1CN(C(=O)CSc2nc3ccccc3c(=O)n2Cc2ccc(F)cc2)c2ccccc2N1`, the “activity change, negative = inhibition” value was inactive: -29.8%.
In the case of `COC(=O)c1cccc(NC(=O)Nc2ccc(Cl)c(Cl)c2)c1`, the Potency is reported as inconclusive: 39.8 µM [inhibitor, single point].
In the case of `C/C(=N/NC(=O)c1cc(C(C)C)[nH]n1)c1cccs1`, the Potency is reported as inconclusive: 20 µM [inhibitor, single point].
In the case of `O=C(CCl)Nc1cn(-c2ccccc2)nc1-c1ccc(F)cc1`, the Potency is reported as inconclusive: 37.7 µM [inhibitor, single point].
For `CCCOc1ccc(C2=CSC3=NCCN23)cc1Cl`, the Potency was inconclusive: 31.6 µM [inhibitor, single point].
With `CCOC(=O)C1=CCN(S(=O)(=O)c2ccccc2C(=O)OC)C1c1ccc(Cl)cc1` (configuration not stated) the Potency was inconclusive: 20 µM [inhibitor, partial curve, poor fit].
In the case of `CN(CC(=O)Nc1cccnc1)S(=O)(=O)c1ccccc1`, the “activity change, negative = inhibition” value is reported as inactive: 8.46%.
In the case of `CCC(C)(C)C1CCC(=NNS(=O)(=O)c2ccc(C)c([N+](=O)[O-])c2)CC1` (configuration not stated), the Potency is reported as inconclusive: 3.16 µM [inhibitor, single point].
For `CC(C)c1ccccc1NC(=O)COC(=O)CCN1C(=O)/C(=C\C=C\c2ccccc2)SC1=S`, the Potency was inconclusive: 2.12 µM [inhibitor, full curve, poor fit].
In the case of `COc1cccc(/C=C/c2nc(C#N)c(NCCN(C)C)o2)c1`, the “activity change, negative = inhibition” value is reported as inactive: 2.21%.
With `CC(C)C[C@H]1CN([C@@H](Cc2ccccc2)CN2CCC[C@@H]2CN2C(=O)C(=O)NC[C@@H]2Cc2ccccc2)C(=O)C(=O)N1CCc1ccccc1` the Potency was inconclusive: 35.5 µM [inhibitor, single point].
For `Cc1nc(SC2CC(=O)N(c3ccccc3)C2=O)n[nH]1` (configuration not stated), the Potency was inconclusive: 2.38 µM [inhibitor, partial curve, poor fit].
For `COc1ccc(CCNC(=O)c2cc(-c3cccs3)on2)cc1OC`, the Potency was inconclusive: 10 µM [inhibitor, partial curve].
For `COCCn1c(SCC(=O)Nc2ccc(C)cc2)nc2c(oc3ccccc32)c1=O`, the Potency was inconclusive: 7.94 µM [inhibitor, partial curve, poor fit].
With `CCOC(=O)CNC(=O)CSc1nnc(NC(=O)c2ccc(C)cc2)s1` the Potency was inconclusive: 10.6 µM [inhibitor, partial curve, poor fit].
With `Cc1nn(-c2ccccc2)c(C)c1C(=O)OCC(=O)c1c(N)n(CC(C)C)c(=O)n(C)c1=O` the Potency was inconclusive: 17.8 µM [inhibitor, partial curve, poor fit].
For `CCN(CC)S(=O)(=O)c1ccc2oc(C(=O)NCc3ccc(C)cc3)c(C)c2c1`, the Potency was inconclusive: 15.8 µM [inhibitor, partial curve, poor fit].
In the case of `COc1ccc(Cl)cc1NS(=O)(=O)c1ccc2[nH]c3c(c2c1)CCCC3`, the Potency is reported as inconclusive: 39.8 µM [inhibitor, single point].
% is scaled to controls: 0 for no effect and ±100 for the full control effect; potency is read from the fitted curve at half-maximal effect; tags tell the direction and shape of the fitted curve.
